# PubChem BioAssay AID686971 (National Center for Advancing Translational Sciences (NCATS), 2013)
# About 7,500 (2.1%) of roughly 360,000 compounds were called active. The inconclusive results got no clear call from the source; some entries with a clear call stand among them for comparison. Calls come from the whole dose curve; as a rule, active = well fitted cell-killing curve with a large enough effect; inconclusive = small, poorly fitted or top-dose-only effect, or effect the other way, or another doubt; inactive = no such curve, though single readings can be large or run the other way. Potencies of inconclusive entries are left out as doubtful fits.
# Test: qHTS for induction of synthetic lethality in tumor cells producing 2HG: qHTS for the HT-1080-IDH1KD cell line;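 for activity, negative = toxicity: 0% = DMSO wells and -100% = cell-free medium wells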
# Conditions: HT-1080 IDH1 knockdown viability, ATP luminescence, 48 h; activity, negative = toxicity: at 46.1 µM (top of the series) unless noted
# Procedure, shortened: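 % activity derives from luminescence (CellTiter-Glo), normalised to DMSO and no-cell wells. HT-1080-IDH1KD cells, 750/well, had 48 h compound exposure at 37 °C.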
# Potency is the fitted concentration of half-maximal effect; tags give direction and shape of the fitted curve.
Compound,Potency,"activity, negative = toxicity"
COc1ccccc1NC(=O)c1ccc(C)c(S(=O)(=O)N2CCCCC2)c1,"inconclusive [cytotoxic, single point]",
COc1ccc(N=Cc2c(O)ccc3ccccc23)cc1,"inconclusive [cytotoxic, partial curve]",
COc1ccc(-c2noc(COc3ccccc3OC)n2)cc1OC,,inactive: -3.78%
Cc1c(C(=O)NCc2cccc(Cl)c2)sc(=O)n1Cc1ccc(C(=O)N(C)C)cc1,,inactive: -8.41%
CCOC(=O)c1c(-c2ccccc2)csc1NC(=O)C(C)NCCCN1CCOCC1 (stereo unspecified),"inconclusive [cytotoxic, single point]",
CCOC(=O)c1c(C)n(CC(O)CN(C)C)c2cc(Br)c(OC)cc12 (stereo unspecified),,inactive: -11.7%
COC(=O)CCc1sc(Nc2ccc(Br)cc2)nc1-c1ccc(OC)cc1,"inconclusive [cytotoxic, single point]",
O=C(C1CCC(=O)N(C2CC2)C1)N1CCC(Oc2cccc(F)c2)CC1 (stereo unspecified),"inconclusive [cytotoxic, full curve, poor fit]",
COc1ccc(CC2(CO)CCN(Cc3cnn(-c4ccccc4)c3)CC2)cc1,"inconclusive [cytotoxic, single point]",
NC(=O)C1Cc2ccccc2CN1S(=O)(=O)c1ccc(Cl)s1 (stereo unspecified),,inactive: 4.22%
CN1CCN(Cc2nc3ccccc3c(=O)n2Cc2nc(-c3ccc([N+](=O)[O-])cc3)cs2)CC1,active: 20.6 µM,
COC(=O)c1ccc2c(c1)C(C)(C)C(/C=C/c1ccc(OC)c(OC)c1OC)=[N+]2C,active: 11.6 µM,
CN(C)CCCN(C(=O)CCOc1ccccc1)c1nc2ccc(F)cc2s1,active: 20.6 µM,
C=CCn1c(SCC(=O)Nc2sccc2C(N)=O)nc2ccc(Cl)cc2c1=O,"inconclusive [cytotoxic, partial curve]",
CCN(CC)CCCNc1nc2ccccc2c2[nH]c3ccc(OC)cc3c12,active: 20.6 µM,
CN(Cc1ccno1)Cc1cn(Cc2ccccc2)nc1-c1ccc2c(c1)OCO2,,inactive: -3.18%
OC(c1ccc(F)c(F)c1)c1nc(-c2ccc(Cl)cc2)cs1 (stereo unspecified),"inconclusive [cytotoxic, single point]",
Cn1c(NCCN2CCCC2)nc2cc(-c3ccsc3)sc2c1=O,"inconclusive [cytotoxic, single point]",
CCCn1ncc(CN2CCC(C(=O)Nc3cccc(-c4cccc(F)c4)c3)CC2)c1C,"inconclusive [cytotoxic, single point]",
Cc1cccc(N2C(=O)C(Oc3ccc(Cl)cc3Cl)C2C=O)c1C (stereo unspecified),"inconclusive [cytotoxic, single point]",
Cc1ccc(C)c(Cn2nnc3c(=O)[nH]c(C4CCN(S(=O)(=O)c5ccc(S(=O)(=O)NC6CC6)cc5)CC4)nc32)c1,"inconclusive [cytotoxic, single point]",
Cc1ccc(-c2nc3ccccc3[nH]2)s1,"inconclusive [cytotoxic, single point]",
Cc1ccc(S(=O)(=O)N[C@@H](CO)C(=O)N[C@@H](Cc2ccc(O)cc2)C(=O)O)cc1,,inactive: 21.8%
CN1CCN(c2ccc(Cl)cc2NC(=O)/C=C/c2ccc(F)cc2)CC1,active: 16.4 µM,

Compound,Potency,"activity, negative = toxicity"
CS(=O)(=O)N1CCN(c2ccc([N+](=O)[O-])c(NCc3ccc(Cl)cc3)c2)CC1,"inconclusive [cytotoxic, single point]",
Cc1ncoc1C(=O)N1CCCC(C(=O)c2ccc(C(F)(F)F)cc2)C1 (stereo unspecified),,inactive: 10.6%
O=C(O)c1ccc(/C=C/C(=O)c2ccc3c(c2)OCCCO3)cc1,"inconclusive [cytotoxic, single point]",
Cc1ccc(S(=O)(=O)Nc2ccc(N(C)S(=O)(=O)c3ccc(C)cc3)cc2)cc1,"inconclusive [cytotoxic, single point]",
CCOc1ccc(N=Cc2ccc([N+](=O)[O-])cc2)c(O)c1,,inactive: -14.3%
O=C(NCc1csc(-c2ccccc2)n1)c1ccco1,,inactive: -1.09%
Cc1nn(-c2ccccc2)c2[nH]c(C(F)(F)F)cc(=O)c12,"inconclusive [cytotoxic, single point]",
Cc1ccccc1Cn1nc(C)c(NC(=O)c2sc3ccccc3c2Cl)c1C,,inconclusive: -32% [cytotoxic]
O=C(c1ccncc1)N1N=C(C2CCCCC2)CC1(O)C(F)(F)F (stereo unspecified),,inactive: -8.02%
Cc1ccccc1N(C(=O)c1snc(C(N)=O)c1N)C(C(=O)NC1CCCCC1)c1ccc(O)cc1 (stereo unspecified),active: 9.2 µM,
CCOCc1nc(N)nc(N)c1-c1cccc(Cl)c1,"inconclusive [cytotoxic, single point]",
Cc1nn(Cc2ccc(C(=O)N/N=C/c3ccncc3)o2)c(C)c1Cl,"inconclusive [cytotoxic, partial curve]",
CN(C)c1cccc(CNC(=O)c2csc([C@@H]3O[C@H](CO)[C@H](O)[C@H](O)[C@H]3O)n2)c1,"inconclusive [rising, partial curve]",
CC1=C(/C=C/C(C)=C/C=C/C(C)=C/CO)C(C)(C)CCC1,"inconclusive [cytotoxic, single point]",
CCc1ccc(-c2cc(C)no2)cc1S(=O)(=O)NCCCN1CCN(c2ccccc2)CC1,"inconclusive [cytotoxic, single point]",
CCOC(=O)c1c(C)nc2c(c1-c1cc(OC)c(OC)c(OC)c1)C(=O)c1ccccc1-2,,inactive: -3.78%
Cc1cccc(OCC(=O)Nc2ccc(N3CCN(C(=O)c4ccco4)CC3)cc2)c1,"inconclusive [cytotoxic, single point]",
CCN(C(=O)c1ccc2c(SCC(=O)O)c3c(nc2c1)CCC3)c1cc(Cl)ccc1OC,,inactive: 0%
CC(C)COc1cccc(-c2cc(C(=O)N/N=C/c3ccncc3)c3ccccc3n2)c1,active: 18.4 µM,
Cc1cc(C)c(S(=O)(=O)Nc2ncccc2C)c(C)c1,,inactive: -1.97%
Cc1ccccc1-n1c(SCC(=O)Nc2ccccc2Cl)nc2n[nH]c(C)c2c1=N,"inconclusive [cytotoxic, partial curve]",
N#CCSc1ncnc2sc3c(c12)CCC3,,inactive: 1.66%
COC(=O)[C@@]1(Cc2ccc(F)cc2)[C@H]2c3cc(C(=O)N(C)C)n(CCc4ccc(OC)c(Br)c4)c3C[C@H]2CN1C(=O)c1ccccc1,,inactive: -3.76%
O=C(Nc1cc(C(F)(F)F)ccc1Cl)C(Sc1cccc[n+]1[O-])c1ccccc1 (stereo unspecified),,inactive: -7.39%

Compound,Potency,"activity, negative = toxicity"
C=CCN(C(=O)c1csnn1)C(C(=O)NC1CCCC1)c1ccccc1 (stereo unspecified),,inactive: 1.38%
CCn1nc(C(=O)NNC(=O)c2ccccc2OCc2c(C)noc2C)c2ccccc2c1=O,"inconclusive [cytotoxic, single point]",
COc1ccc2oc3cc(C)[n+]([O-])c(-c4ccc(C)cc4)c3c2c1,,inactive: -12.9%
CC(C)=CC(=O)Nc1ccc(OCc2ccccc2)cc1,"inconclusive [cytotoxic, partial curve]",
CCn1c(NC(=O)c2cccs2)nc2ccccc21,"inconclusive [cytotoxic, single point]",
COc1ccc(-c2nc(SC(C)C(=O)NCC3CCCO3)n[nH]2)cc1 (stereo unspecified),"inconclusive [cytotoxic, partial curve]",
O=C1NCC(c2ccccc2)C1C(=O)N/N=C\c1ccc(-c2cccc(Cl)c2Cl)o1 (stereo unspecified),"inconclusive [cytotoxic, partial curve]",
O=S(=O)(c1ccc(Cl)cc1)N1CCCC1c1nc(-c2cccc(Cl)c2)no1 (stereo unspecified),,inactive: -2.03%
CCn1ncc(/C=C/C(=O)Nc2c(C)nn(Cc3ccc(Cl)cc3Cl)c2C)c1C,"inconclusive [cytotoxic, single point]",
Cc1ccc(C(C)C)c(OCc2ccc(C(=O)N/N=C/c3cccc(O)c3O)cc2)c1,"inconclusive [cytotoxic, full curve]",
C#CCOCCOCCOCCNc1nc(N2CCN(C(=O)CCCCCCCCCCNC(=O)Cn3cc(C[C@@H](C)O)nn3)CC2)nc(N2CCN(C(=O)CCCCCCCCCCNC(=O)[C@@H]([C@H](C)CC)n3cc(CCCCCN)nn3)CC2)n1,active: 23.1 µM,
O=C1CCCC2=C1C(c1ccco1)Nc1ccc3ccccc3c12 (stereo unspecified),"inconclusive [cytotoxic, single point]",
OC1(c2ccc(Cl)cc2)CCN(Cc2c[nH]c3ccccc23)CC1,active: 18.4 µM,
Oc1ccc(/C=N/N(c2ccccc2)c2ccccc2)cc1O,"inconclusive [cytotoxic, single point]",
Fc1ccc(/C=C2\CCCC3=C2Nc2ncnn2C3c2ccc(F)cc2)cc1 (stereo unspecified),active: 6.51 µM,
O=C(OCc1ccc(O)cc1)c1c(-c2ccsc2)oc2ccc(N3CCOCC3)cc12,"inconclusive [cytotoxic, single point]",
COc1ccc(C(C(=O)NC2CCCCC2)N(C(=O)CCl)c2ccc(C)cc2)cc1 (stereo unspecified),active: 1.16 µM,
CCOC(=O)c1ccc(CSc2nncn2N)o1,,inactive: -3.43%
COC(=O)C(C(=O)OC)C(C[N+](=O)[O-])c1ccc(OC)c(OC)c1 (stereo unspecified),,inactive: 15%
Cc1cc(=O)c2cc(Br)ccc2[nH]1,,inactive: -27.4%
CC(C)c1ccc(NS(=O)(=O)c2ccc(-n3cccn3)cc2)cc1,"inconclusive [cytotoxic, single point]",
Cc1cccc(N2CCN(C(=O)Cn3sc4nc(C)cc(C)c4c3=O)CC2C)c1 (stereo unspecified),"inconclusive [cytotoxic, single point]",
COc1ccc(/C=N/NC(=O)c2ccn[nH]2)cc1CSc1ccccn1,,inactive: 14.7%
